From the antibiotic and cytotoxicity screens of Wong et al. (2023)
The list shows a part of the results.

Tests used:
HSkMC = human skeletal muscle cells; experiment: cytotoxicity call (relative viability < 0.9); conditions: 10 µM
HepG2 = experiment: cytotoxicity call (relative viability < 0.9); conditions: 10 µM
S. aureus RN4220 = experiment: growth inhibition call (relative growth <= 0.2); conditions: 50 µM

Row | SMILES | cytotoxicity call (HSkMC) | cytotoxicity call (HepG2) | growth inhibition call (S. aureus RN4220)
1 | COc1ccc(S(=O)(=O)N(C)C[C@H]2OCCCC[C@@H](C)Oc3ccc(NS(=O)(=O)c4ccc(Cl)cc4)cc3C(=O)N([C@H](C)CO)C[C@H]2C)cc1 | inactive | active | inactive
2 | O=C(c1cn(Cc2cncn2Cc2ccc(Br)cc2)cc1-c1cccc2ccccc12)N1CCOCC1 | active | active | inactive
3 | C[C@H]1CN([C@@H](C)CO)C(=O)c2cc(NC(=O)NC3CCCCC3)ccc2O[C@H]1CN(C)Cc1ccc(Cl)c(Cl)c1 | inactive | inactive | inactive
4 | COc1ccc(NC(=O)Nc2ccc3c(c2)C(=O)N([C@H](C)CO)C[C@@H](C)[C@@H](CN(C)S(=O)(=O)c2c(C)noc2C)OCCCC[C@H](C)O3)cc1 | inactive | inactive | inactive
5 | C[C@H](CO)N1C[C@H](C)[C@@H](CN(C)C(=O)Cc2ccccn2)Oc2ncc(C#CC3CCCCC3)cc2C1=O | inactive | inactive | inactive
6 | C[C@@H]1CN([C@@H](C)CO)C(=O)c2cc(NC(=O)c3ccccc3)ccc2O[C@@H](C)CCCCO[C@@H]1CN(C)C(=O)C1CCCCC1 | inactive | inactive | inactive
7 | COc1ccc(CN(C)C[C@H]2Oc3ccc(NS(=O)(=O)c4cn(C)cn4)cc3CC(=O)N([C@H](C)CO)C[C@@H]2C)cc1 | inactive | inactive | inactive
8 | Cc1nc2ccc([N+](=O)[O-])cc2s1 | inactive | inactive | inactive
9 | CCOC(=O)N(C)C[C@@H]1OCc2cnnn2CCCC(=O)N([C@H](C)CO)C[C@H]1C | inactive | inactive | inactive
10 | CN(C)CCN1C(=O)CO[C@H]2CN(C(=O)NCc3cccnc3)C[C@@H]21 | inactive | inactive | inactive
11 | CCCN(C)C[C@@H]1OCCCC[C@H](C)Oc2ccc(NC(=O)Cc3ccccc3)cc2C(=O)N([C@@H](C)CO)C[C@@H]1C | inactive | inactive | inactive
12 | Cc1cc(C(=O)Nc2cccc3c2O[C@H](CN(C)S(C)(=O)=O)[C@H](C)CN([C@H](C)CO)C3=O)n(C)n1 | inactive | inactive | inactive
13 | O=S1(=O)CC[C@H](N2CCOCC2)C1 | inactive | inactive | inactive
14 | COc1ccc2c3c(n(c2c1)C)[C@@H](CO)N(C[C@]13CN(C1)C(=O)CN(C)C)C(=O)CN(C)C | inactive | inactive | inactive
15 | CO[C@H]1O[C@H](CO)[C@@H](OC(=O)c2ccc(Br)cc2)[C@@H]2OC(=O)[C@H](Cc3ccccc3)C/C=C/C[C@@H](Cc3ccccc3)C(=O)O[C@@H]12 | inactive | inactive | inactive
16 | C[C@@H]1CN([C@@H](C)CO)C(=O)c2cc(NC(=O)Nc3ccc(F)cc3)ccc2O[C@@H](C)CCCCO[C@@H]1CN(C)C(=O)Nc1ccc2c(c1)OCO2 | inactive | inactive | inactive
17 | C[C@@H]1CN([C@@H](C)CO)C(=O)Cc2cc(NC(=O)Nc3ccccc3)ccc2O[C@H]1CN(C)Cc1ccc(-c2ccccc2)cc1 | inactive | active | inactive
18 | C[C@H](CO)N1C[C@H](C)[C@H](CN(C)S(=O)(=O)c2ccc(F)cc2)Oc2c(NC(=O)c3cnccn3)cccc2C1=O | inactive | inactive | inactive
19 | C[C@H]1CN([C@@H](C)CO)C(=O)c2cccc(NC(=O)c3cnccn3)c2O[C@H]1CN(C)C(=O)Nc1ccc2c(c1)OCO2 | inactive | inactive | inactive
20 | Cc1ccc(S(=O)(=O)N(C)C[C@H]2OCCCC[C@H](C)Oc3ccc(NS(C)(=O)=O)cc3C(=O)N([C@@H](C)CO)C[C@H]2C)cc1 | inactive | inactive | inactive
21 | NC(=O)NCC#Cc1ccc2c(c1)[C@]1(C(=O)N2)[C@H](c2ccc(OCCO)cc2)N2[C@H](c3ccccc3)[C@H](c3ccccc3)OC(=O)[C@H]2[C@@H]1C(N)=O | inactive | inactive | inactive
22 | Cc1ccc(S(=O)(=O)N[C@H]2CC[C@@H](CC(=O)N3CCC(Cc4ccccc4)CC3)O[C@@H]2CO)cc1 | inactive | inactive | inactive
23 | O=C(COc1ccc(Cl)cc1Cl)NCCn1ncc2c(=O)n(Cc3cccc([N+](=O)[O-])c3)cnc21 | inactive | inactive | inactive
24 | COc1ccc(NC(=O)N(C)C[C@H]2Oc3ccc(NS(C)(=O)=O)cc3CC(=O)N([C@@H](C)CO)C[C@@H]2C)cc1 | inactive | inactive | inactive
25 | NC(=O)NCC#Cc1ccc2c(c1)[C@]1(C(=O)N2)[C@H](C(=O)N2CCN(c3ncccn3)CC2)[C@H]2C(=O)O[C@H](c3ccccc3)[C@H](c3ccccc3)N2[C@@H]1c1ccc(OCCO)cc1 | inactive | inactive | inactive
